PubChem BioAssay AID686979 (National Center for Advancing Translational Sciences (NCATS), 2013)
Among all 420,000 compounds or so, about 50,000 (12%) were called active. Not shown: some 26% with an inconclusive outcome. Calls come from the whole dose curve; as a rule, active = well fitted inhibition curve with a large enough effect; inconclusive = small, poorly fitted or top-dose-only effect; inactive = flat fitted curve, though single readings scatter. This is a selection; strong and weak results do not stand in their true shares. Some compounds were tested as several samples or in several runs, with calls that do not always agree.

Test: qHTS for Inhibitors of human tyrosyl-DNA phosphodiesterase 1 (TDP1): qHTS in cells in presence of CPT; note: nearly all actives have a fitted effect of over 55% in size
Details: chicken DT40 Tdp1-/-;hTDP1 cells + 20 nM CPT, ATP luminescence, 48 h; series mostly up to 46.2 µM; activity change, negative = growth inhibition: at the top concentration
How it was run: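 Chicken DT40 Tdp1-/- cells complemented with human TDP1, 400 cells/well, exposed to compounds plus 20 nM camptothecin for at least 48 h at 37 C; viability read as ATP content by CellTiter-Glo luminescence.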
% is set by controls: 0 for no effect and ±100 for the full control effect; potency is the fitted concentration of half-maximal effect.

SMILES	activity change, negative = growth inhibition	Potency
CSCCC(C(=O)N1C[C@]2(C)C[C@H]1CC(C)(C)C2)N1C(=O)c2ccccc2C1=O (stereo partly specified)	inactive: -25%	–
Cc1ccnc(-n2sc3ccccc3c2=O)n1	–	active: 7.31 µM
CCn1cc2nc(SCc3cccc(Cl)c3)n(Cc3ccc(C)cc3)c(=O)c2n1	–	active: 20.6 µM
COc1cccc(N2CCN(C(=O)CCS(=O)(=O)c3ccc4c(c3)oc(=O)n4C)CC2)c1	inactive: -19.3%	–
CCC(C)n1ncn(-c2ccc(N3CCN(c4ccc(OC[C@H]5CO[C@](Cn6cncn6)(c6ccc(Cl)cc6Cl)O5)cc4)CC3)cc2)c1=O (stereo partly specified)	inactive: -13.8%	–
CCOc1ccc(CNC(=O)CCCc2cn(C)c3ccccc23)cc1OC	inactive: -22.2%	–
CN1CCN(C(=O)C2=C[C@H](C3CCCCC3)C[C@H](OCc3ccc(CO)cc3)O2)CC1	inactive: -29.6%	–
COc1ccc(Nc2oc(/C=C/c3cccc(OC)c3)nc2C#N)cc1	–	active: 18.4 µM
C[C@@H]1CN([C@H](C)CO)S(=O)(=O)c2ccc(Br)cc2O[C@H]1CN(C)C(=O)Nc1ccc(F)cc1	inactive: -27.6%	–
N#CC(C#N)=C(N)/C(C#N)=C/c1ccc2[nH]ccc2c1	inactive: -8.76%	–
COc1cc(OC)cc(-c2noc(-c3csc([C@H]4C[C@H](O)[C@@H](CO)O4)n3)n2)c1	inactive: -27.4%	–
O=C(Cn1c(O)c(/C=C2\C=Nc3ccc(Br)cc32)sc1=O)N1CCCC1	–	active: 20.6 µM
CNCCC(Oc1ccccc1OC)c1ccccc1 (stereo unspecified)	inactive: -2.91%	–
COc1cccc(CC2(CO)CCCN(Cc3ccc(OC)c(C)c3OC)C2)c1 (stereo unspecified)	–	active: 18.4 µM
CCCCCCCC/C=C\CCCCCCCC(=O)NCCc1ccc(O)c(O)c1	–	active: 1.03 µM
COc1cccc(CN2CCC2(C)C(=O)Nc2cccc(Oc3ccccc3)c2)c1F (stereo unspecified)	–	active: 10.3 µM
CCCCN1CC[C@H]2C=CC[C@@H](C(=O)N3CCN(c4ccccc4)CC3)[C@H]2C1=O	inactive: -7.33%	–
C[C@]12CC[C@@H]3c4ccc(O)cc4CC[C@H]3[C@@H]1CCC2=O	–	inactive
CCCCC(=O)NC1(C(F)(F)F)NC(=O)N(Cc2ccccc2)C1=O (stereo unspecified)	inactive: 33.7%	–
CC(C)Oc1ccc(CN2CCC2(C)C(=O)Nc2cccc3cccnc23)cc1 (stereo unspecified)	–	active: 18.4 µM
N#C/C(=C\c1cccs1)c1nc2ccccc2[nH]1	inactive: -18.5%	–
O=C(O)CS(=O)CC(=O)NCc1cccc(C(F)(F)F)c1 (stereo unspecified)	inactive: 36.8%	–
Fc1cccc(CN2CCSCC2)c1	inactive: 47.8%	–

SMILES	activity change, negative = growth inhibition	Potency
O=C(NNC(=O)c1ccc2c(=O)n3c(nc2c1)CCC3)c1ccc(Cl)cc1	inactive: 34%	–
Cc1cc(C(=O)OCC(=O)NNC(=O)c2cccs2)ccc1[N+](=O)[O-]	inactive: 33.1%	–
Cc1ccccc1C(=O)c1cccn1CC(=O)NCc1ccc(Cl)cc1	inactive: -2.32%	–
Cc1cccc(C)c1NC(=O)CN1C(=O)CCSc2ccc(S(=O)(=O)N3CCCC3)cc21	inactive: -11.1%	–
COc1ccc([C@@H]2C[C@H](c3ccccc3)Oc3cc(OC)c(OC)c(OC)c32)cc1	inactive: -24%	–
Cc1cc(C)c2c(CN3CCC(C)CC3)cc(=O)oc2c1	inactive: 12.5%	–
CCOc1ccc(Nc2nc3ccccc3c3nnc(CC)n23)cc1	–	active: 14.6 µM
Cc1ccc(CCNC(=O)c2sc3ncccc3c2-n2c(C)ccc2C)cc1	–	active: 11.6 µM
Cc1cccc(/C=N\NC(=O)c2csnn2)c1	inactive: 30.5%	–
Cn1nc(C(=O)N2CCN(c3ccccc3)CC2)c2c1-c1ccccc1S(=O)(=O)C2	inactive: -19%	–
CCOC(=O)N1CCN(c2c(NCc3ccc(Cl)cc3)c(=O)c2=O)CC1	–	active: 4.11 µM
O=c1c2c([nH]n1-c1ccccc1)CCCC2	inactive: 34.7%	–
O=C1C(Nc2ccccc2)=C(N2CCCCC2)C(=O)c2ccccc21	–	active: 18.4 µM
CCOc1ccc(CCNC(=O)C(C)n2nc(C)n3c(cc4occc43)c2=O)cc1OCC (stereo unspecified)	inactive: -17.1%	–
O=S1(=O)N[C@H](Cc2ccccc2)COc2cc(N3CCC[C@H]3CO)ccc21	inactive: -21.3%	–
CCCCCCCCCC[N+](C)(C)CC/C=C1/c2ccccc2Sc2ccc(Cl)cc21	–	active: 5.17 µM
O=C1N(c2ccccc2)c2ccccc2C1(Cc1ccncc1)Cc1ccncc1	inactive: -38.1%	–
CS(=O)(=O)Nc1ccc(C(=O)NC2CCCCC2)cc1	inactive: -2.38%	–
COC(=O)c1ccc(CSc2nc3c(c(=O)[nH]2)CCC3)cc1	inactive: -28.7%	–
COc1cccc(-c2cc(C(=O)Nc3ccn(Cc4ccc(C)cc4)n3)no2)c1	inactive: -25.3%	–
COc1cccc(C(=O)CC2(O)C(=O)N(Cc3ccccc3)c3ccccc32)c1 (stereo unspecified)	–	active: 6.51 µM
COc1ccc(C(=O)NNS(=O)(=O)c2ccc(C)cc2)cc1	inactive: 13.4%	–
CCN1/C(=C/C(=S)Nc2ccccc2)Sc2ccccc21	inactive: -77.9%	–

SMILES	activity change, negative = growth inhibition	Potency
CC1CCN(S(=O)(=O)c2ccc(NC(=O)[C@@H]3CCCC[C@@H]3C(=O)O)cc2)CC1	inactive: 4.62%	–
OCC[C@H]1C[C@H](O)[C@@H](O)[C@]2(CCCO2)O1	inactive: -20.8%	–
COCCCn1c(=O)c2sccc2n2c(CCCC(=O)NCc3cccc(OC)c3)nnc12	inactive: -3.02%	–
O=C1CC(NCC2CCCO2)C(=O)N1c1ccc(F)cc1 (stereo unspecified)	inactive: 4.26%	–
O=C1/C(=C\c2ccccn2)SC(=S)N1Nc1ncc(C(F)(F)F)cc1Cl	inactive: -26.7%	–
CN(CCOc1ccc(CC2SC(=O)NC2=O)cc1)c1ccccn1 (stereo unspecified)	–	inactive
C[C@H](N=C(NC#N)Nc1ccncc1)C(C)(C)C	inactive: -26.2%	–
CCC1Oc2ccccc2N(CC(=O)NCCC2=CCCCC2)C1=O (stereo unspecified)	–	active: 16.4 µM
O=C(CCN1C(=O)/C(=C\c2cccs2)SC1=S)Nc1ccccn1	inactive: -21%	–
O=C(NC1CC1)C1=C[C@H](c2ccc(C(F)(F)F)cc2)C[C@H](OCCCCO)O1	inactive: -8.5%	–
COc1ccccc1-c1nc(C(=O)NCC2CCCO2)cc2c1[nH]c1ccccc12 (stereo unspecified)	–	active: 20.6 µM
Cc1ccc(NC(=O)c2ccc(CN3CC(=O)N4CCCCC4C3=O)cc2)c(C)c1 (stereo unspecified)	inactive: -17.2%	–
O=C(Cn1ncn2c(cc3ccccc32)c1=O)NCc1ccc(F)cc1	–	active: 5.8 µM
Cc1c(NC(=O)CC(C)C)c(=O)n(-c2ccccc2)n1C	inactive: 34.3%	–
COCCNC(=O)/C(C#N)=C/C=C/c1ccccc1[N+](=O)[O-]	–	active: 10.3 µM
N[C@@H](C(=O)N[C@@H]1C(=O)N2C(C(=O)O)=C(Cl)CS[C@H]12)c1ccccc1	inactive: 5.57%	–
C[C@@H]1CN([C@@H](C)CO)C(=O)CCCn2nncc2CO[C@@H]1CN(C)S(=O)(=O)c1ccc(Cl)cc1	inactive: -0.887%	–
O=C(COc1ccccc1-c1ccccc1)N/N=C/c1ccc2ccccc2c1	–	active: 1.16 µM
O=C(c1cc(-c2ccc(F)cc2)on1)N1CCN(c2ccc(F)cc2)CC1	inactive: 3.72%	–
CC(=O)OCC1=C(C(=O)O)N2C(=O)C(NC(=O)Cc3ccccc3)C2SC1 (stereo unspecified)	inactive: -4.8%	–
CCC1CN(C(=O)N2CCC(C(=O)NCc3ccccc3OC)CC2)c2cc(C)ccc2O1 (stereo unspecified)	–	active: 16.4 µM
CC(=NNC(=S)N1CC2CCC(CC2)C1)c1cccc(C)n1	–	active: 0.0103 µM
c1ccc(-c2onc(-c3ccco3)c2-c2ccc3c(c2)OCO3)cc1	inactive: -25.9%	–

SMILES	activity change, negative = growth inhibition	Potency
Cc1cc(OCC(O)CN2CCN(C)CC2)ccc1C(C)C (stereo unspecified)	inactive: -17.3%	–
O=C(Nc1ccc(S(=O)(=O)N2CCCCC2)cc1)c1ccc(CN2CCc3ccccc3C2)cc1	–	active: 10.3 µM
O=C(O)CCC1(CCC(=O)O)c2ccccc2-c2ccccc21	inactive: 55.5%	–
CCOc1ccc2nc(Cl)sc2c1	inactive: 39.4%	–
C=C[C@@]1(C)CC(=O)[C@@]2(O)[C@@]3(C)[C@@H](O)CCC(C)(C)[C@@H]3[C@H](O)[C@H](OC(C)=O)[C@@]2(C)O1	inactive: 3.8%	–
COc1ccc(C(=O)Nc2ccc(Cl)cn2)cc1S(=O)(=O)N1CCCC1	inactive: -7.38%	–
COc1ccc2c(=O)c(-c3ccccc3)coc2c1	inactive: -23%	–
CC(C)C[C@@H](CN=[N+]=[N-])N1CCN(CC(C)C)CCC1=O	inactive: -23.6%	–
COc1ccc(CNC(=O)[C@@H]2CC=C[C@@H]3CCN(C4CCCCC4)C(=O)[C@@H]32)cc1	inactive: -23.2%	–
Cc1cccc(CSc2cn(CC(=O)N3CCOCC3)c3ccccc23)c1	inactive: -14.5%	–
COc1ccc(C(=O)c2ccccc2O)c(O)c1	–	inactive
CC1CC(C)CN(C(=O)C2CCN(S(=O)(=O)c3ccc4c(c3)CC(C)N4C(=O)C3CC3)CC2)C1 (stereo unspecified)	–	active: 16.4 µM
COCCc1ccc(OCC(O)CNC(C)C)cc1 (stereo unspecified)	–	inactive
Cc1cc(C)cc(NC(=O)Cn2nnc(C(=O)NCc3ccccc3Cl)c2N)c1	inactive: -22.1%	–
NC(=O)COC(=O)c1cccc2c1-c1ccccc1C2=O	inactive: 13.2%	–
O=C(OCCN1CCOCC1)c1cccc(F)c1	inactive: -0.964%	–
N#C/C(=C/c1ccc(Br)s1)C(=O)NCCc1c[nH]c2ccccc12	–	active: 23.1 µM
O=C1CCC(C(=O)O)N1 (stereo unspecified)	inactive: 1.38%	–
Cc1ccc(NC(=O)c2ccc(=O)n(CC(=O)Nc3c(C)cc(C)cc3C)n2)cc1	inactive: -2.48%	–
O=C(OCc1cn([C@@H]2C[C@H](c3ccccc3)N(Cc3cccs3)C[C@H]2O)nn1)c1ccccc1	inactive: -11.9%	–
CC(C)(C)CC(C)(C)N=C1Nc2ccccc2NC12C[C@H]1CCC(=O)N3CC[C@@H](C2)[C@@H]13 (stereo partly specified)	inactive: -2.37%	–
C[C@@H]1CN([C@H](C)CO)C(=O)CCCn2nncc2CO[C@@H]1CN(C)C(=O)Nc1ccc(N2CCN(C)CC2)cc1	inactive: -24.5%	–
COc1ccc(CNS(=O)(=O)c2cc3c4c(c2)CCN4C(=O)CC3)cc1	inactive: -20%	–

SMILES	activity change, negative = growth inhibition	Potency
C=CCOc1cccc(C2/C(=C(/O)c3ccc4c(c3)CC(C)O4)C(=O)C(=O)N2CCN2CCOCC2)c1 (stereo unspecified)	inactive: 30.4%	–
COC(=O)c1ccc(C)c(NC(=O)CN(c2ccc3c(c2)OCO3)S(C)(=O)=O)c1	inactive: 30.7%	–
CCCCn1c(N)c(N(CC(C)C)C(=O)c2cccc(S(=O)(=O)N3CC(C)OC(C)C3)c2)c(=O)[nH]c1=O (stereo unspecified)	inactive: 19.3%	–
CCC1NC(=O)c2cc(S(N)(=O)=O)c(Cl)cc2N1 (stereo unspecified)	inactive: -15%	–
C[C@H](NC(=O)[C@@H]1Cc2ccccc2CN1)C(=O)Nc1ccc2c(c1)OCCO2	inactive: -17.8%	–
CNC(C)C(=O)NC(C(=O)N1CCCC1C(=O)Nc1ccc2ncccc2c1)C(C)C (stereo unspecified)	inactive: 11.8%	–
Cc1cc(C(=O)OCC(=O)NC(C)c2ccccc2)c(C)o1 (stereo unspecified)	inactive: -0.667%	–
COc1ccccc1-n1c(C)cc(/C=C2/C(=N)N3C(=NC2=O)SN=C3S(C)(=O)=O)c1C	inactive: 4.25%	–
C/C(Cc1ccccc1)=N/NC(=O)CNC(=O)C(c1ccccc1)c1ccccc1	inactive: -7.14%	–
CN1CCOC(c2ccccc2)c2ccccc2C1 (stereo unspecified)	–	inactive
O=C(COC(=O)c1cccs1)Nc1ccc(F)c(F)c1	inactive: -2.27%	–
O=C(c1cnc2n(c1=O)CCS2)N1CCN(C(c2ccccc2)c2ccc(Cl)cc2)CC1 (stereo unspecified)	–	active: 11.6 µM
C=CCn1c(SCC(=O)c2ccccc2)nnc1-c1cc2ccccc2o1	–	active: 23.1 µM
CCOC(=O)c1c(C)[nH]c(C(=O)COC(=O)CCS(=O)(=O)c2ccc(C)cc2)c1C	inactive: 29.2%	–
O=C(/C=C/C=C/c1ccc2c(c1)OCO2)N1CCCCC1	inactive: 3.01%	–
CC1=NNC(=O)C1CCC(=O)N/N=C/C=C/c1ccccc1 (stereo unspecified)	inactive: 39.2%	–
CC(=O)N1CCc2cc(S(=O)(=O)CCC(=O)N3CCN(c4ccccc4F)CC3)ccc21	inactive: -23%	–
CCOc1ccc(-n2c(C)c3c(C)nnc(C)c3c2C)cc1	–	active: 2.91 µM
O=C(CN1CCN(c2cccc(Cl)n2)CC1)N1CC(O)CO1 (stereo unspecified)	inactive: 0.376%	–
